Assay results reported in the supplement of paper PMC4604168 (melanoma cell lines).
The other results are listed elsewhere or left out. Most values come without repeats; read them as rough.

Columns and labels:
Experiment in all cases: cell count relative to DMSO control; melanoma cells; higher = more viable cells
Conditions in all cases: library dose: standard library concentration; 72 h
[1] = system: G361
[2] = system: IPC-298
[3] = system: IST-MEL1
[4] = system: LB2518-MEL
[5] = system: LOXIMVI
[6] = system: MEL-HO
[7] = system: MZ2-MEL
[8] = system: MeWo
[9] = system: RPMI7951
[10] = system: RVH-421
[11] = system: SkMel28
[12] = system: SkMel2
[13] = system: SkMel30
[14] = system: SkMel5
[15] = system: UACC257
[16] = system: UACC62
[17] = system: WM115
[18] = system: WM1716
[19] = system: WM1745
[20] = system: WM3526
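Note: cells treated in 1,536-well plates, then fixed and DAPI-stained, with nuclei counted from automated high-throughput microscope images.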

Structure (SMILES) | cell count [1] [%] | cell count [2] [%] | cell count [3] [%] | cell count [4] [%] | cell count [5] [%] | cell count [6] [%] | cell count [7] [%] | cell count [8] [%] | cell count [9] [%] | cell count [10] [%] | cell count [11] [%] | cell count [12] [%] | cell count [13] [%] | cell count [14] [%] | cell count [15] [%] | cell count [16] [%] | cell count [17] [%] | cell count [18] [%] | cell count [19] [%] | cell count [20] [%]
Nc1nc(F)nc2c1ncn2[C@@H]1O[C@H](CO)[C@@H](O)[C@@H]1O [fludarabine] + OCCn1cc(-c2cnc3nnn(Cc4ccc5ncccc5c4)c3n2)cn1 [PF04217903] (first compound 1 µM, partner dose 5 µM) | 77.9 | 78.8 | 69.2 | 70.2 | 68.4 | 74.9 | 104 | 87.2 | 48.4 | 74.7 | 3.11 | 1.25 | 20.2 | 27.4 | 32.2 | 92 | 84.3 | 78.9 | 76 | 21.8
CC(=O)O[C@@]12CO[C@@H]1C[C@H](O)[C@@]1(C)C(=O)[C@H](O)C3=C(C)[C@@H](OC(=O)[C@H](O)[C@@H](NC(=O)OC(C)(C)C)c4ccccc4)C[C@@](O)([C@@H](OC(=O)c4ccccc4)[C@H]21)C3(C)C [Docetaxel] + CN(NC(=O)CC(=O)NN(C)C(=S)c1ccccc1)C(=S)c1ccccc1 [STA4783] (first compound 0.0005 µM, partner dose 0.03 µM) | 11.7 | 33 | 20 | 26 | 44.1 | 41.2 | 43.9 | 15.1 | 10.3 | 37.6 | 9.12 | 16.9 | 48.3 | 21.4 | 67.3 | 40.8 | 16.7 | 33.7 | 20.3 | 35
CC(=O)O[C@@]12CO[C@@H]1C[C@H](O)[C@@]1(C)C(=O)[C@H](O)C3=C(C)[C@@H](OC(=O)[C@H](O)[C@@H](NC(=O)OC(C)(C)C)c4ccccc4)C[C@@](O)([C@@H](OC(=O)c4ccccc4)[C@H]21)C3(C)C [Docetaxel] + Cc1cc(Nc2cc(N3CCN(C)CC3)nc(/C=C/c3ccccc3)n2)n[nH]1 [ENMD2076] (first compound 0.0005 µM, partner dose 0.2 µM) | 16.6 | 40.8 | 39.3 | 43.5 | 52.8 | 46.4 | 45.5 | 39.1 | 23.2 | 67.9 | 13.1 | 23.5 | 53.3 | 42 | 67.4 | 60.7 | 43.4 | 41.1 | 35.5 | 52.5
Nc1nc(F)nc2c1ncn2[C@@H]1O[C@H](CO)[C@@H](O)[C@@H]1O [fludarabine] + Nc1ncn([C@H]2C[C@H](O)[C@@H](CO)O2)c(=O)n1 [decitabine] (first compound 1 µM, partner dose 0.5 µM) | 68.6 | 54.3 | 50.8 | 75 | 68.7 | 60.5 | 73.8 | 69.2 | 43.4 | 59.1 | 3.88 | 1.21 | 10.9 | 16.3 | 31.3 | 61.4 | 66.7 | 67.7 | 69.7 | 27.4
Nc1ncn([C@H]2C[C@H](O)[C@@H](CO)O2)c(=O)n1 [decitabine] + O=C(CCCCCCC(=O)Nc1ccccc1)NO [vorinostat] (first compound 0.5 µM, partner dose 0.4 µM) | 54 | 55.6 | 66 | 68 | 73.7 | 77.4 | 77.9 | 67.7 | 68.5 | 69.3 | 65.9 | 75.5 | 62.4 | 65.1 | 73.8 | 78.2 | 64.8 | 72 | 63.9 | 81.6
CC(=O)c1c(C)c2cnc(Nc3ccc(N4CCNCC4)cn3)nc2n(C2CCCC2)c1=O [palbociclib] + CN(C)S(=O)(=O)c1ccc2c(c1)/C(=C/c1cc3c([nH]1)CCCC3)C(=O)N2 [SU6656] (first compound 0.2 µM, partner dose 2 µM) | 58.4 | 54.9 | 64.5 | 55.7 | 73.7 | 70.4 | 79.7 | 54.1 | 74.2 | 66.9 | 33.5 | 52.5 | 50.9 | 65.4 | 82.2 | 74.9 | 68.2 | 33.6 | 79.3 | 38.4
CC(=O)c1c(C)c2cnc(Nc3ccc(N4CCNCC4)cn3)nc2n(C2CCCC2)c1=O [palbociclib] + O=C(O)c1ccc(-c2c[nH]c3ncc(-c4ccccc4)cc23)cc1C1CCCC1 [GSK650394] (first compound 0.2 µM, partner dose 0.8 µM) | 49.5 | 67.1 | 57.7 | 51.9 | 68 | 66.2 | 50.1 | 50.3 | 45.7 | 62.3 | 42.9 | 66.3 | 73.6 | 62 | 61.7 | 58.5 | 57.7 | 47.1 | 64.5 | 44.9
CO[C@H]1C[C@@H]2CC[C@@H](C)[C@@](O)(O2)C(=O)C(=O)N2CCCC[C@H]2C(=O)O[C@H]([C@H](C)C[C@@H]2CC[C@@H](OCCO)[C@H](OC)C2)CC(=O)[C@H](C)/C=C(\C)[C@@H](O)[C@@H](OC)C(=O)[C@H](C)C[C@H](C)/C=C/C=C/C=C/1C [everolimus] + C[C@]1(c2nc3c(C(N)=O)cccc3[nH]2)CCCN1 [Veliparib] (first compound 0.1 µM, partner dose 7 µM) | 58 | 67.5 | 77.7 | 71.2 | 49.5 | 63.3 | 74.2 | 64.4 | 78.9 | 58.1 | 44.9 | 61.3 | 67.2 | 52.7 | 76.7 | 58.3 | 65.2 | 65.8 | 71.7 | 61.7
CC(=O)c1c(C)c2cnc(Nc3ccc(N4CCNCC4)cn3)nc2n(C2CCCC2)c1=O [palbociclib] + Cn1nnc2c(C(N)=O)ncn2c1=O [temozolomide] (first compound 0.2 µM, partner dose 10 µM) | 66.9 | 75.8 | 85.8 | 63.4 | 65.1 | 79.7 | 73.1 | 53.9 | 88.9 | 46.2 | 37.8 | 67.2 | 59.8 | 61.6 | 82.9 | 63.8 | 53.6 | 45 | 103 | 48.4
Nc1ccn([C@@H]2O[C@H](CO)[C@@H](O)C2(F)F)c(=O)n1 [gemcitabine] + O=C(O)c1ccc(-c2c[nH]c3ncc(-c4ccccc4)cc23)cc1C1CCCC1 [GSK650394] (first compound 0.002 µM, partner dose 0.8 µM) | 37.4 | 54.9 | 44.8 | 60 | 98.7 | 64.5 | 73.8 | 53.9 | 52.9 | 69.3 | 96.7 | 78 | 91.9 | 87.2 | 92.6 | 94.6 | 59.2 | 71.5 | 60.4 | 101
CC(=O)c1c(C)c2cnc(Nc3ccc(N4CCNCC4)cn3)nc2n(C2CCCC2)c1=O [palbociclib] + COCC[n+]1c2c(n(Cc3cnccn3)c1C)C(=O)c1ccccc1C2=O [YM155] (first compound 0.2 µM, partner dose 0.002 µM) | 50.6 | 31.2 | 35 | 24.5 | 49.4 | 64 | 23.9 | 30.5 | 58.2 | 82.1 | 23.5 | 32.1 | 43.5 | 32.5 | 26.8 | 47 | 49.9 | 47.1 | 74.1 | 32.5
CC(=O)c1c(C)c2cnc(Nc3ccc(N4CCNCC4)cn3)nc2n(C2CCCC2)c1=O [palbociclib] + CC(C)(C)c1cnc(CSc2cnc(NC(=O)C3CCNCC3)s2)o1 [SNS-032] (first compound 0.2 µM, partner dose 0.05 µM) | 80 | 90.8 | 69.5 | 57.3 | 53.6 | 88.8 | 77.1 | 44.6 | 57.8 | 76.7 | 42.4 | 56.8 | 62.7 | 41.1 | 77 | 66.7 | 55.5 | 47.4 | 78.5 | 47.2
CC(=O)c1c(C)c2cnc(Nc3ccc(N4CCNCC4)cn3)nc2n(C2CCCC2)c1=O [palbociclib] + C[C@@H]1CCN(C(=O)CC#N)C[C@@H]1N(C)c1ncnc2[nH]ccc12 [CP690550] (first compound 0.2 µM, partner dose 5 µM) | 66 | 88.2 | 64.5 | 57.9 | 71 | 79.5 | 80.7 | 65 | 68.2 | 78.9 | 51 | 55.8 | 72.4 | 52.2 | 78.8 | 69.3 | 73 | 46.5 | 65 | 46.3
Nc1ccn([C@@H]2O[C@H](CO)[C@@H](O)C2(F)F)c(=O)n1 [gemcitabine] + NCC(=O)Nc1ccc(-n2nc(C(F)(F)F)cc2-c2ccc3c(ccc4ccccc43)c2)cc1 [OSU03012] (first compound 0.002 µM, partner dose 5 µM) | 45.4 | 45.7 | 44.9 | 66.1 | 78.6 | 60.9 | 63.4 | 43.9 | 50.5 | 57.9 | 30.4 | 40.1 | 57.1 | 41 | 84.3 | 72.2 | 79.3 | 71.3 | 37.5 | 53.1
